In article PMC12040169 (PLOS Biology, 2025):
Some of the results follow.

Test system: T1, C. trachomatis L2/434/Bu expressing GFP (CTL2-GFP)
T1 construct: L2/434/Bu GFP intracellular growth in HeLa cells
Design: species or system HeLa; C. trachomatis total inclusion area by high-content imaging, normalised to DMSO
Details: total inclusion area; 28.5 h, 10 µM; inhibitor
Method in brief: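 Bulk GFP and resorufin signals were read first. Wells were then fixed, stained with Hoechst and imaged to detect GFP inclusions and host nuclei. MICs followed the previously described calculation.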

SMILES	% of control remaining
OCCN1CCN(CC(O)COCc2ccccc2)CC1 (stereo not drawn) [CBK278262C]	81.8396
O=C1NC2(CCc3ccccc31)CCN(Cc1ccncc1)C2 (stereo not drawn) [CBK284610]	64.7795
O=C1/C(=N\Nc2ccc([N+](=O)[O-])cc2[N+](=O)[O-])c2cc(Br)ccc2N1CN1CCCCC1 [CBK260927]	79.7681
CC(C)Cc1ccc(-c2cc(NCCc3ccccn3)ncn2)cc1 [CBK091088]	83.013
CC(=O)N1CCN(C(=O)NC(C)C)C[C@@H]1C(=O)N[C@@H](CC1CCCCC1)C(N)=O [CBK289633]	110.498
O=C(O)c1ccc2c(c1)C(=O)N(CCCN1CCOCC1)C2=O [CBK269245]	117.702
COc1ccc2c(c1)C1(CC(=O)N(C)C1=O)C(=O)N2CCCC(=O)O (stereo not drawn) [CBK076109]	105.557
COc1ccc(S(=O)(=O)N(Cc2cc(F)cc(F)c2)C2CCNCC2)cc1 [CBK165292T]	74.0327
COCCN(C)S(=O)(=O)c1cc(C)c(Cl)cc1C [CBK043867]	103.666
CS(=O)(=O)N1CC2(CCN(Cc3ccc(OC(F)(F)F)cc3)CC2)c2ccccc21 [CBK126668]	81.5394
CN(CCCC(=O)O)c1nc(-c2ccc(Br)cc2)cs1 [CBK299834]	62.23
O=C(O)c1[nH]c2ccccc2c1/C=N/Cc1ccccc1Cl [CBK294456]	105.088
CN1CCN(C(=S)c2ccc(OCC(=O)Nc3cccc(C(F)(F)F)c3)cc2)CC1 [CBK266826]	88.54
Clc1ccc(OCc2nc3ccccc3n2CCOc2ccccc2)c(Cl)c1 [CBK264728]	104.065
COC(=O)c1ccc(/C=N/N=C2\NC(=O)C(CC(=O)Nc3ccccc3)S2)cc1 (stereo not drawn) [CBK264483]	106.649
CC(=O)N1CCc2c(sc(NC(=O)c3ccc(N(C)C)cc3)c2C#N)C1 [CBK304333]	23.5877
CC(C)c1ccc(NC(=O)O[C@@H]2CO[C@H]3[C@@H]2OC[C@@H]3NC(=O)C2CC2)cc1 [CBK289471]	120.365
COC(=O)CCc1ccc(S(=O)(=O)N2CCCN(Cc3cccc4c3OCO4)CC2)cc1 [CBK062993]	63.4392
Cc1cccc(OCCCn2cncc2-c2cnn(C)c2)c1 [CBK281763]	103.555
Cc1cc(C)n(-c2ccc(C(=O)NCC3(C)COC3)cc2)n1 [CBK281756]	99.0785
O=C(Nc1ccc(NC(=O)c2ccccc2O)cc1)c1cnc(-c2ccccc2)c(-c2ccncc2)c1 [CBK037490]	69.6479
